The subject of this experiment is A498 complex spheroids with HUVEC/MSC, growth. Briefly: Anticancer human tumor A498 cell line growth inhibition [AhR].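 Further: luminescence signal used as a surrogate for viable cells; seven day exposure starting three days after spheroid seeding; luminescence viability scaled so 100% equals DMSO vehicle wells.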 As to conditions: compound alone 3.16 µM; stronger effect = lower value. An excerpt:
Multicellular complex tumor spheroid response to aryl hydrocarbon receptor antagonists in combination with a variety of drugs and investigational agents in selected tumor cell lines
The current study was undertaken to assess response to aryl hydrocarbon receptor antagonists in combination with standard-of-care drugs and investigational agents in solid tumor complex spheroid models. Complex spheroids include a stromal component modeled by human endothelial cells (HUVEC) and fibroblasts modeled by human mesenchymal stem cells (MSCs). The concentration ranges selected for each drug and investigational agent were based upon clinically achievable concentrations if the clinical Cmax of the agent was known.
Compounds. […] If the clinical Cmax for an agent had not been determined, the highest concentration tested was 10 microM (Table 1). […]

For part of its entries the source gives two or more results. This is not the full list of results. The source may hold further records. The records of an entry are repeated measurements in other runs, samples, wells, individuals or studies. Additions like (4×) give the number of equal values in this list.

By viability, T/C is commonly meant the result in the treated group divided by that in the control group, in per cent.

Turning to `Cc1cncc(-c2nc(NCCc3c[nH]c4ccccc34)c3ncn(C(C)C)c3n2)c1`, the viability, T/C is 46.3, 71.6, 60, 67.3 (2×), 55, 57.3, 74.3, 48.3, 51.3, 62.3, 54.3, 58.7, 58.1, 57.4, 65, 34.3, 39.5, 32, 31.2, 82%.

For the origin of these results see PubChem BioAssay AID1919007 (Molecular Pharmacology Branch, DTP, NCI, 2023).
